PubChem BioAssay AID1159614 (National Center for Advancing Translational Sciences (NCATS), 2016)
In all, about 45,000 compounds went through this assay and about 65 (0.1%) were called active. Calls come from the whole dose curve; as a rule, active = well fitted activation curve with a large enough effect; inconclusive = small, poorly fitted or top-dose-only effect; inactive = no such curve, though single readings can be large or run the other way. This is one part of the list.

target: Galactocerebrosidase (Homo sapiens) (UniProt P54803); assay: A Novel Cell-Based Assay to Identify Small Molecules for B -Galactocerebrosidase; details: 145M-Twi-hGALC-G270D cells (Twitcher mouse brain line with human GALC G270D), HMU-beta-Gal fluorescence, 48 h; series mostly up to 57.5 µM; activation: at the top concentration; note: 0% is about no effect; nearly all actives have a fitted effect of over 65% in size
Sequence of UniProt P54803 (P54803 whole entry, looked up): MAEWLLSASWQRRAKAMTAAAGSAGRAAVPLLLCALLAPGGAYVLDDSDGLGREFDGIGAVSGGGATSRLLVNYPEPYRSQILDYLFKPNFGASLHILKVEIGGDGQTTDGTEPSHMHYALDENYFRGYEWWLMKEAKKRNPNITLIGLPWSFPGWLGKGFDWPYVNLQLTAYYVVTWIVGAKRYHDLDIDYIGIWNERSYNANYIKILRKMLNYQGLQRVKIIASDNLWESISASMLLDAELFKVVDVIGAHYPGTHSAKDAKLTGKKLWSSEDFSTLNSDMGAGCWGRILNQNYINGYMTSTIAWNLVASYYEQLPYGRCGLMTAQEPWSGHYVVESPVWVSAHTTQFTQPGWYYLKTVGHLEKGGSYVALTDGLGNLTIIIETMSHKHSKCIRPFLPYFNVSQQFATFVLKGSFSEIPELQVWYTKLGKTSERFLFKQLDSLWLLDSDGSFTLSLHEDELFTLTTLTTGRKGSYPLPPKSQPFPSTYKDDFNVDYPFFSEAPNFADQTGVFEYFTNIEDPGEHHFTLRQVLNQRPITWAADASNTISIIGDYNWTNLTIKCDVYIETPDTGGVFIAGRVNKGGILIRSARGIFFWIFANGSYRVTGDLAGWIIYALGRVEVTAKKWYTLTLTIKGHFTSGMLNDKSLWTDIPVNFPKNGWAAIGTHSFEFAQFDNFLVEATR
From the text: Lysosomal storage diseases (LSDs) are caused by genetic mutations in genes encoding proteins important for normal lysosomal function. Globoid cell leukodystrophy (GLD), mostly known as Krabbe disease, is a prototype of the neurological LSDs caused by deficiency of beta-galactocerebrosidase (GALC). In brain specimens of GLD patients, psychosine levels are substantially elevated. At elevated concentrations, psychosine becomes cytotoxic to neuronal cells, particularly to oligodendrocytes (OLG), neural cells responsible for myelin formation. Therefore, the biochemical disturbances in GLD are manifested by different degrees of brain demyelination resulting in a broad spectrum of neurological manifestations. Most of the FDA-approved therapies are based on enzyme replacement therapeutic (ERT) agents, which treat non-neurological symptoms of Gaucher disease, Fabry disease, few mucopolysaccharidoses and Pompe disease. Unfortunately, in GLD, a primarily neurological LSD, ERT agents, as large molecular weight molecules unable to cross the blood-brain barrier, which makes this an inefficacious therapeutic approach. In GLD, increasing the residual GALC activity just above the critical threshold (~10% of wild type enzymatic activity), the cytotoxic levels of psychosine will be reduced, avoiding the OLGs apoptosis and the subsequent demyelination process. This will translate in disease stabilization and amelioration of GLD patient symptoms.
A cell-based assay in 1,536-well plate format was developed to implement a quantitative high-throughput screening (qHTS) assay using GLD-disease relevant cells to identify small molecules that produce enhancements of the residual enzymatic activity levels of mutants GALC found and prevalent in GLD patients. Compounds that are active may therefore have some therapeutic application for GLD. After the treatment of live cells for a determined period, using a fluorescent GALC specific substrate, the mutant residual GALC activity is measured. This cell-based qTHS assay was used to screen part of the MLPCN library for small molecule able to increase the mutant GALC enzymatic activity. In this assay, increased fluorescent signal corresponds to enhanced levels of mutant GALC residual enzymatic activity. Activation is the desired outcome for this assay.
NIH Chemical Genomics Center [NCGC]
NIH Molecular Libraries Probe Centers Network [MLPCN]
Assay Submitter (PI): Gustavo Maegawa MD,PhD, University of Florida, Gainesville, FL
2)#Two cell lines were established for the assay: 145M-Twi-hGALC-G270D (brain-derived Twitcher cell line stably expressing human GALC-G270D) and 145M-Twi-hGALC-WT (same 145M-Twi stably expressing human GALC wild type). The Twitcher is the murine C57B/6 model for GLD with naturally occurring homozygous nonsense GALC mutation. The 145M-Twi cell line was established at Maegawa lab (Ribbens J et al 2014).
a.#Media: DMEM/F12 (1:1) with 10% fetal bovine-serum (FBS) with penicillin/streptomycin (PS-1X - 100 I.U./mL of penicillin+100 ug/mL of streptomycin).
b.#The 6-Hexadecanoylamino-4-methylumbelliferyl-b-D-galactoside (HMU-B-gal) substrate was prepared as per Wiederschain et al 1992. Using 20-mL borosilicate tubes, 2.20 mg of HMU-b-Gal was added in each tube to prepare substrate-film with a final air-nitrogen stream evaporation to remove all diluent solvents.
c.#The HMUb-Gal substrate buffer consists of 0.2 M Na2HPO4 (sodium phosphate dibasic)/ 0.1 M Citric Acid with the pH adjusted to 5.2 using HCl. Sodium Azide at 0.02% and Sodium Taurocholate (NaTC) at 1 mg/mL were added to this substrate buffer.
d.#The HMU-b-Gal stopping buffer consist of 0.5 M NaHCO3 (sodium bicarbonate) /0.5 M Na2CO3 (sodium carbonate). […] Triton X-100 at 0.25% was added.
4)#Preparation of HMU-b-Gal substrate tubes
Adding 18.6 mL of the HMUb-Gal substrate buffer to each 20-mL tube (2.20 mg of HMU-b-Gal) will reach a concentration of 0.2 mM. Vortex well the tube until the solution is fully homogenized (clear cloudy solution). […]

Row | Compound | activation
1 | COc1cccc([C@@]2(O)CCCC[C@@H]2CN(C)C)c1 | inactive: -9.36%
2 | CCCCc1nn2c(=O)cc(COC(=O)Cc3ccccc3)nc2s1 | inactive: -3.57%
3 | C[C@@H]1CN(C2CCC(C#N)(c3ccc(F)cc3)CC2)CC[C@]1(C(=O)O)c1ccccc1 (some centres undefined) | inactive: -6.17%
4 | C=Cc1ccc(Cn2c(C)c(CNCCc3cc(OC)ccc3OC)c(C(=O)O)c2C)cc1 | inactive: -8.4%
5 | CCN1CCCC1CNC(=O)C(O)(c1ccccc1)c1ccccc1 (centres undefined) | inactive: -16.1%
6 | CCC1(CC)C(=O)NC(=O)NC1=O | inactive: -6.02%
7 | C[C@]12CC[C@H]3[C@@H](CCC4=CC(=O)CC[C@@H]43)[C@@H]1CC[C@@H]2OC(=O)CCC1CCCCC1 | inactive: -12.7%
8 | O=C(CCCN1CCC(n2c(=O)[nH]c3ccccc32)CC1)c1ccc(F)cc1 | inactive: -7.12%
9 | O=C(Nc1cc(C(F)(F)F)cc(C(F)(F)F)c1)c1cccn(Cc2ccccc2Cl)c1=O | inactive: -8.46%
10 | CC(C)(C)c1ccc(C(=O)Nc2ccc(Cl)cc2C(=O)c2ccccc2)cc1 | inactive: 5.9%
11 | CCc1cc2c(s1)-n1c(C)nnc1CN=C2c1ccccc1Cl | inactive: -10.4%
12 | CC(C(O)c1ccccc1)N(C)C/C=C/c1ccccc1 (centres undefined) | inactive: -26.4%
13 | Cc1cccc(Cc2cnc[nH]2)c1C | inactive: -6.88%
14 | CN1C(=O)CCS(=O)(=O)C1c1ccc(Cl)cc1 (centres undefined) | inactive: -18.2%
15 | NC(=O)CS(=O)C(c1ccccc1)c1ccccc1 (centres undefined) | inactive: -10.8%
16 | O=C(COc1cc(Cl)ccc1Cl)Nc1ccc(Cl)cc1C(=O)c1ccccc1 | inactive: -0.867%
17 | CC(C)(C)CC(C)(C)c1ccc(O)cc1 | inactive
18 | O=P1(N(CCCl)CCCl)NCCCO1 (centres undefined) | inactive: -8.07%
19 | c1ccc2c(c1)sc1ccccc12 | inactive: -15.5%
20 | Cc1cccc(CN2CC=C(c3noc(CCC(=O)Nc4ccc(C)c(F)c4)n3)CC2)c1 | inactive: -7.9%
21 | COc1ccc(NC(=O)c2sc3nc4c(cc3c2N)N2CCC4CC2)cc1OC | inactive: 1.53%
22 | CCCCCCCCCC(CC)c1ccc(S(=O)(=O)O)cc1 (centres undefined) | inactive: -8.02% [at 114 µM]
23 | Oc1ccccc1-c1ccccc1 | inactive: -13%
24 | Cc1ccc2c(c1)C(Cc1nc3ccccc3c(=O)n1-c1ccc(Br)cc1)C(=O)N2 (centres undefined) | inactive: -15.5%
25 | O=C(NC(O)C(Cl)(Cl)Cl)NC(O)C(Cl)(Cl)Cl (centres undefined) | inactive: -10.3%
26 | CCN(CC)CCN1C(=O)CN=C(c2ccccc2F)c2cc(Cl)ccc21 | inactive: -10.5%
27 | O=C(COc1ccccc1F)N1CCN(Cc2cc(=O)n3nc(-c4ccccc4Cl)sc3n2)CC1 | inactive: -17%

Row | Compound | activation
28 | CC(=O)NC1CCSC1=O (centres undefined) | inactive: -16.5%
29 | COc1ccc2c(c1OC)C(=O)O[C@H]2[C@@H]1c2cc3c(cc2CCN1C)OCO3 | inactive: -11%
30 | CC1(C)CC/C(=C/c2ccc(Cl)cc2)C1(O)Cn1cncn1 (centres undefined) | inactive: -7.86% [at 114 µM]
31 | Cc1cccc(OCC(=O)N2CCN(CCc3ccccn3)CC2)c1 | inactive: -12.9%
32 | O=C(Nc1ccc(F)c([N+](=O)[O-])c1)c1cccn(Cc2ccccc2)c1=O | inactive: -4.53%
33 | CCCCCCC(=O)CCCCCC/C=C/C[C@@H](O)[C@H](O)[C@@](N)(CO)C(=O)O | inactive: -16.7% [at 23.8 µM]
34 | COP(=S)(OC)Oc1ccc(Sc2ccc(OP(=S)(OC)OC)cc2)cc1 | inactive: -9.68%
35 | C[C@]12CC[C@H]3[C@@H](CCC4=CC(=O)CC[C@@H]43)[C@@H]1CC[C@@H]2OC(=O)CCc1ccco1 | inactive: -12.2%
36 | C[C@]12CC[C@@H]3c4ccc(O)cc4C[C@@H](CCCCCCCCCS(=O)CCCC(F)(F)C(F)(F)F)[C@H]3[C@@H]1CC[C@@H]2O (some centres undefined) | inactive: -13.5%
37 | Cc1ccc(Cn2cccc(C(=O)Nc3ccc4c(c3)OCO4)c2=O)cc1 | inactive: -19.7%
38 | C[C@]12C/C(=C/O)C(=O)C[C@@H]1CC[C@@H]1[C@@H]2CC[C@@]2(C)[C@H]1CC[C@]2(C)O | inactive: -11.8%
39 | C[C@H]1CNCCc2ccc(Cl)cc21 | inactive: -4.79%
40 | COc1ccc(-c2nc(CSCC(=O)N3CCN(c4ccc(F)cc4)CC3)c(C)o2)cc1 | inactive: -42.6%
41 | CCCNC(=O)c1cnn2c(C)c(Cc3c(C)cc(C)cc3C)c(C)nc12 | inactive: -42.3%
42 | CCCOc1ccc(C2SCC(=O)Nc3c2c(C)nn3-c2cccc(C)c2)cc1OC (centres undefined) | inactive: 0.247%
43 | COc1cccc(NC(=O)Cn2cc(C(=O)c3ccccc3)c3ccccc32)c1 | inactive: 6.05%
44 | CNC(C)Cc1ccccc1OC (centres undefined) | inactive: -11.7%
45 | C=C1C[C@@H]2[C@H](CC[C@]3(C)C(=O)CC[C@@H]23)[C@@]2(C)C=CC(=O)C=C12 | inactive: -23.6%
46 | CC(=O)[C@H]1CC[C@H]2[C@@H]3CC[C@H]4C[C@H](O)CC[C@]4(C)[C@H]3C(=O)C[C@]12C | inactive: -8.68%
47 | CCN(CC)CCSc1nc2ccccc2c(=O)n1-c1ccc(Cl)cc1 | inactive: -20.6%
48 | Cc1cccc(Cn2cccc(C(=O)Nc3ccc4c(c3)OCCO4)c2=O)c1 | inactive: -12.7%
49 | COc1ccccc1N1CCNCC1 | inactive: -8.86%
50 | CCOc1ccc(CN(CCc2ccc3c(c2)OCO3)Cc2cccc(OC)c2)cc1 | inactive: -22.9%
51 | COc1ccc(C)cc1NC(=O)N(Cc1ccc2c(c1)OCO2)C1CCN(Cc2ccccc2)CC1 | inactive: -8.53%
52 | CCOc1ccc(NC(=O)Cn2cc(C(=O)c3ccccc3)c3ccccc32)cc1 | inactive: -6.84%
53 | CC(C)C12CN3CC(C(C)C)(CN(C1)C3c1ccccn1)C2=O (centres undefined) | inactive: -13.6%
54 | Cc1ccc(-n2c(/C=C\c3ccc(F)cc3)nc3ccccc3c2=O)cc1Cl | inactive: -10%
